# Measurements reported in PubChem BioAssay AID1347071 (National Center for Advancing Translational Sciences (NCATS), 2019).
# The whole screen tested about 410,000 compounds, of which about 260 (0.063%) were called active. Inconclusive means that the source gave no clear call. Such entries were picked first, then a sample of the others. The call rests on the fitted dose curve; in most records, active means well fitted activation curve with a large enough effect; inconclusive means small, poorly fitted or top-dose-only effect; inactive means no such curve, though single readings can be large or run the other way. No potency is given beside an inconclusive call; the fits are too rough.
# Assay: qHTS for compounds that reverse cellular toxicity of Amyloid beta (A-beta) peptide in yeast: Primary Screen; further: nearly all actives have a fitted effect of over 55% in size
# Conditions: yeast expressing A-beta42, growth rescue, OD600, 48 h; growth rescue: at 46.1 µM (top of the series), 0% DMSO, 100% iron-clioquinol control
# In short: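 Yeast growth medium received pinned compounds, then yeast cells expressing toxic A-beta were added; plates incubated at 30 C for 48 hr. Growth read as absorbance at 600 nm, normalized to DMSO and equimolar FeCl3 plus clioquinol controls.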
# Potency means the concentration at half of the fitted maximal effect; tags describe the fitted curve by direction and shape.
Compound,Potency,growth rescue
CC(C)CC(=O)NC(c1cccs1)c1ccc2cccnc2c1O (centres undefined),"inconclusive [activator, single point]",–
Cc1ccc(-c2ccc(CN3C(C)C(=O)N(Cc4cn(Cc5ccco5)nn4)CCS3(=O)=O)cc2)c(C)c1 (centres undefined),–,inactive: 5.72%
Brc1cnc2nc(SC/C=C/c3ccccc3)[nH]c2c1,"inconclusive [activator, single point]",–
CCC(C)(C)n1nnnc1C(C(C)C)N(CCCO)Cc1cc2cc(C)ccc2[nH]c1=O (centres undefined),"inconclusive [activator, single point]",–
O=C(C[n+]1cc(-c2ccccc2)n2c1CCC2)Nc1nc(-c2ccccc2)cs1,–,inactive: 7.76%
COc1ccc(CCC(=O)NCCc2csc(-c3ccc(F)cc3)n2)cc1,–,inactive: -3.37%
CNc1cncc(-c2ccc(F)c(F)c2)n1,–,inactive: -8.91%
CCOC(=O)c1cc(-c2ccccc2)n(-c2cccc(C(=O)Nc3cccc(SC)c3)c2)c1C,–,inactive: -13%
S=c1[nH]cc(Cc2ccccc2)s1,"inconclusive [activator, single point]",–
Cc1cccc(NC(=S)NCC(C)CSc2ccc(Cl)cc2)c1 (centres undefined),"inconclusive [activator, single point]",–
O=C(NCc1ccncc1)C(=O)NCC(c1ccco1)N1CCN(c2ccc(F)cc2)CC1 (centres undefined),–,inactive: -7.9%
COc1cc(NC(=O)COc2cc(O)c3c(c2)OC(C)(C)CC3=O)cc(OC)c1,–,inactive: 4.95%
O=C(NCC1COc2ccccc2O1)C1(c2ccccc2)CCCC1 (centres undefined),"inconclusive [activator, partial curve]",–
Cc1cc(C)cc(NC(=O)NN2C(C)CCCC2C)c1 (centres undefined),"inconclusive [activator, partial curve]",–
O=C(NCCc1ccccc1)c1ccc2c(c1)N(Cc1ccc(Cl)cc1)C(=O)CS2,–,inactive: -6.92%
Cc1ccc(-n2c(Cc3cccc4ccccc34)n[nH]c2=S)c(C)c1,"inconclusive [activator, full curve, poor fit]",–
Cn1ncc2c(N3CCN(c4ccc(F)cc4)CC3)ncnc21,–,inactive: -11.3%
CCc1cc2c(cc3c(=O)n(CC(=O)NC(C)c4ccccc4)ncn32)s1 (centres undefined),–,inactive: -9.42%
O=S(=O)(c1ccc(Cl)cc1)c1nc(-c2cccs2)oc1N1CCCCC1,–,inactive: -5.32%
Cn1nc(C(F)(F)F)c(/C=N/OCc2c(Cl)cccc2Cl)c1Cl,"inconclusive [activator, partial curve, poor fit]",–
COc1ccccc1CNC(=O)Cc1csc2nc(-c3ccc(F)cc3)cn12,"inconclusive [activator, partial curve]",–
C/C(=N\NC(=S)NCCc1ccccc1)c1ccc(O)cc1O,–,inactive: 19.9%
CCOC(=O)COc1cc(N)c(Cl)cc1Cl,"inconclusive [activator, partial curve, poor fit]",–

Compound,Potency,growth rescue
COc1ccc(CCN(C(=O)c2cccc(F)c2)C2CC(=O)N(c3ccccc3)C2=O)cc1 (centres undefined),"inconclusive [activator, partial curve, poor fit]",–
CC(=O)c1c(C)nn(CC(O)Cn2c3c(c4cc(C)ccc42)CCCC3=O)c1C (centres undefined),"inconclusive [activator, single point]",–
CCOc1ccccc1NC(=S)N1CCC(c2nc3ccccc3o2)CC1,"inconclusive [activator, single point]",–
CCN1C(C(=O)c2ccccc2)=C(OC(=O)COc2ccc(C)cc2)c2ccccc2S1(=O)=O,–,inactive: -41.3%
Cc1ccc(CNC(=O)CSc2nc3c(sc4ccccc43)c(=O)n2CCCC(=O)NCCO)cc1,–,inactive: -12.6%
O=c1c2ccccc2ncn1Cc1ccc(Cl)c(Cl)c1,"inconclusive [activator, full curve, poor fit]",–
COc1ccccc1C(=O)N1CCN(S(=O)(=O)c2ccccc2)CC1,"inconclusive [activator, full curve]",–
Fc1nc(F)c(F)c(NCCCNc2c(F)c(F)nc(F)c2F)c1F,"inconclusive [activator, full curve]",–
Cc1ccc(C(=O)NC(=S)/C=C2\N(C)c3ccccc3C2(C)C)cc1,–,inactive: 24.5%
CCOc1cc(/C=N\Nc2nc(Nc3ccccc3)nc(N3CCOCC3)n2)ccc1OC(=O)c1ccco1,"inconclusive [activator, partial curve]",–
Cc1ccc(Nc2nc(N3CCOCC3)nc(N3CCOCC3)n2)cc1C,"inconclusive [activator, full curve, poor fit]",–
CCC(Sc1nccn1C)C(=O)Nc1cccc2ccccc12 (centres undefined),"inconclusive [activator, partial curve]",–
CCCCCC(=O)NNC(=S)NC(C)=O,"inconclusive [activator, single point]",–
Cc1ccc(Sc2ccc(NC(=O)CCl)cc2)c(C)c1,"inconclusive [activator, single point]",–
C=CCn1c(C)cc(C(=O)CSc2nnc(Cc3ccccc3)o2)c1C,"inconclusive [activator, full curve, poor fit]",–
CC(C)(C)c1ccc(S(=O)(=O)/N=C2\C=C(NS(=O)(=O)c3ccccc3)C(=O)c3ccccc32)cc1,"inconclusive [activator, partial curve, poor fit]",–
CC1CC2(CC(C)(C(=O)CSc3nc4ccccc4s3)OC2=O)C(=O)O1 (centres undefined),"inconclusive [activator, partial curve]",–
Cc1ccc(C)c(-c2nn(-c3cc(N4CCN(CCO)CC4)ccc3[N+](=O)[O-])c(=O)c3ccccc23)c1,"inconclusive [activator, single point]",–
N#Cc1ccc(C(C(=O)NC2CCCCC2)n2c(=O)c(-c3cc4ccccc4[nH]3)nc3ccccc32)cc1 (centres undefined),"inconclusive [activator, partial curve]",–
Cc1ccc(S(=O)(=O)N/N=C/c2cccs2)cc1,"inconclusive [activator, partial curve, poor fit]",–
Cc1cccc(C)c1NC(=O)C(c1ccccc1F)n1c(=O)c(-c2cc3ccccc3[nH]2)nc2ccccc21 (centres undefined),"inconclusive [activator, partial curve, poor fit]",–
C/C(=N\NC(=S)Nc1c(C)cccc1C)c1ccc(O)cc1,"inconclusive [activator, single point]",–
COc1ccc(-c2noc(CNC(=O)c3ccccc3Br)n2)cc1,–,inactive: -15.4%

Compound,Potency,growth rescue
CCOC(=O)c1ccc(NC(=O)CN2C(=O)C(CC)SC(CC)C2=O)cc1 (centres undefined),"inconclusive [activator, single point]",–
CC(C1CC1)N(Cc1ccccc1)C(=S)Nc1cccc(C(F)(F)F)c1 (centres undefined),"inconclusive [activator, single point]",–
CC(OC(=O)Cc1c[nH]c2ccccc12)C(=O)Nc1ccccc1F (centres undefined),"inconclusive [activator, partial curve]",–
COc1ccccc1CNC(=O)C(=O)NCC(c1cccs1)S(=O)(=O)c1ccccc1 (centres undefined),–,inactive: -13.9%
CCOC(=O)c1ccc(-c2ccc(C=O)o2)cc1,–,inactive: -7.89%
CCOc1ccc(Oc2c(C)oc3cc(O)ccc3c2=O)cc1,"inconclusive [activator, single point]",–
Cc1ccc2ccc(C(Nc3ccccc3)c3ccccc3)c(O)c2n1 (centres undefined),"inconclusive [activator, single point]",–
COc1cccc(CNc2nc3cc(-c4ccc(C)cc4)sc3c(=O)n2C)c1OC,–,inactive: 3.82%
Cc1ccc(C)c(NS(=O)(=O)c2cc3c(cc2C)n(C)c(=O)c(=O)n3C)c1,–,inactive: -7.91%
Cc1nn(Cc2n[nH]c(=S)n2Cc2ccccc2)c(C)c1Cl,"inconclusive [activator, full curve]",–
CCOc1cccc(C(=O)Nc2cccc(C(C)=O)c2)c1,"inconclusive [activator, single point]",–
Cc1ccc(NNC(N)=S)cc1Cl,"inconclusive [activator, full curve]",–
CCc1ccc(C2C(C(=O)Nc3ccccc3OC)=C(C)Nc3c(C(=O)Nc4ccc(C)cc4)cnn32)cc1 (centres undefined),–,inactive: 18.4%
COc1ccc(Sc2nc(-c3ccccn3)ncc2OC)cc1,"inconclusive [activator, partial curve, poor fit]",–
C[C@H](NC(=O)c1nc[nH]c1C(=O)N[C@@H](Cc1ccccc1)C(=O)OC(C)(C)C)c1ccccc1,–,inactive: 9.4%
COc1ccc(C(=O)N2C=Cc3ccccc3C2C(N)=O)cc1 (centres undefined),–,inactive: 15%
O=C(Nc1nc(-c2ccccn2)cs1)c1ccco1,"inconclusive [activator, single point]",–
CCOc1ccccc1NC(=S)NC1CC2CCC1C2 (centres undefined),"inconclusive [activator, single point]",–
Cc1c(CNC(=O)c2cnn3c2NC(c2ccc(Br)cc2)CC3C(F)(F)F)cnn1C (centres undefined),–,inactive: 6.41%
C/C(=N\Nc1nc(Nc2ccccc2)nc(N2CCOCC2)n1)c1cccs1,"inconclusive [activator, single point]",–
CC(C)(C)Nc1nc(SCC(=O)Nc2ccccc2Cl)nc(N2CCOCC2)n1,"inconclusive [activator, single point]",–
O=S(NCc1ccco1)C12CC3CC(CC(C3)C1)C2 (centres undefined),"inconclusive [activator, partial curve, poor fit]",–
O=C(COC(=O)c1ccc(OC(F)F)cc1)NC(=O)NC1CCCC1,"inconclusive [activator, partial curve, poor fit]",–
